The list shows a part of the results. At the low end of the ranking, values are background and their order means little.
These sequences were tested against MAX:MAX (p21) (UniProt P61244-2) (assay: protein-binding microarray (anti-MAX antibody)). Settings: PBM: 15 mM Tris-HCl pH 7.5, 100 mM KCl, 0.075% NP40, 7.5 mM beta-mercaptoethanol, 375 ng/ul BSA, 8 ng/ul poly(dA-dT):(dA-dT), 550 ng complex, 60 min, room …; high values mean tight binding; double strand, one strand shown; sequences stand for … in CCGGC…TTAATAGCTAAGATTACTATATCGACG.

Sequence | binding signal (log2 normalized fluorescence)
TGAAAGACAGTA | -0.553
TGATTCCGTGTA | -0.11
TGACACTTCGTA | -0.198
TCACACGTTTTA | 3.25
TGACTGGTCGTA | -0.108
TGACCTGCAGTA | 0.114
TGACACGTGTCC | 3.16
TGACATGATGTA | 1.46
TGACAAAAAGTA | -0.762
CGGCACGTGGTG | 3.21
TGACAGGAGGTA | 0.803
TGAGATTGCGTA | -0.755
TGAGCTTAAGTA | -1.07
TGACTTATGGTA | 0.327
TGATGGAATGTA | 0.0342
TGACTGCCGGTA | -0.407
TGAAGACGAGTA | -0.411
TGAGTGACGGTA | -0.385
TGTCACGAGGTA | 3.25
TGATTGGACGTA | -0.887
TGAACGCGCGTA | 1.01
TGAAATTCCGTA | -1.06
TGAGCTGGTGTA | -0.463

Sequence | binding signal (log2 normalized fluorescence)
TGAGCTAATGTA | -0.869
TGATGATAAGTA | -0.382
TGATGCCGAGTA | -0.628
TGAGATATTGTA | -1.18
TGACCAGTCGTA | -0.667
TGAACTGACGTA | -0.386
TGACAGGAAGTA | -0.344
TGATTGTGCGTA | -0.0131
TGAATTCCTGTA | -0.746
TGACGTCACGTA | 0.494
TGAGGTCTTGTA | -0.72
TGAAGGATAGTA | -0.814
TGTCACCCGGTA | 0.369
TGATGAAAGGTA | -0.455
TGATACGAGGGA | -0.436
ATAATGCGCTTA | 1.96
TGAGATAAGGTA | -0.768
AGATACGCGGTA | -0.065
TGAGCTCTTGTA | -1.26
TGAAGCTGTGTA | -0.651
TGTTGCGTGGTA | 2.18
TGAACTGCAGTA | -0.412
TGACGAGGCGTA | -0.0721

Sequence | binding signal (log2 normalized fluorescence)
TGACATAAAGTA | -0.158
TGACACACTGTA | 1.41
TGACCACGGGTA | 2.11
TGAAAAACTGTA | -0.789
TGAACTTGTGTA | 0.39
TGATCAAAAGTA | -0.852
TGACGGGAGGTA | -0.124
TGAGCCTGGGTA | -0.402
TGAGTGGGGGTA | 1.66
TGATTGCGTGTA | 0.971
TGATATGAGGTA | -0.61
TGTCATGTTGTA | 1.81
TGAGCACTAGTA | -0.35
ATAAAATTCAGC | -0.248
TGAGCAAGTGTA | 0.167
GATGCGCGACCA | 0.871
TGAAAGTCAGTA | -0.325
TGAACCTGCGTA | 0.0407
TGACGAATGGTA | -0.0333
TGATCGCGCGTA | 0.556
TGAGCAACGGTA | -0.288
TGACACTTTGTA | -0.0444
TGAACGACCGTA | -0.159

Sequence | binding signal (log2 normalized fluorescence)
TGACACGTGAAG | 3.15
TGATTCGGGGTA | -0.577
TGAGTACTAGTA | -0.902
AGACATGGGGTA | 2.83
TGACACGTGAGG | 3.37
TGAATGCATGTA | 1.7
TGAGAGTAAGTA | -0.97
TGAATGCAAGTA | 0.000124
TGATGCCTAGTA | -0.326
TGAAGTAGTGTA | -0.591
TGACACCCCGTA | 0.42
AACCACGTGGTA | 3.15
TGACCTTCGGTA | -0.742
TGATGTCGTGTA | 0.411
TGAGTCATAGTA | -0.754
TGAGGTTCTGTA | -0.664
TGAATATTAGTA | -0.974
TGATCGAAAGTA | -1.03
TGACCGGCAGTA | -0.396
TGAGGAACTGTA | -0.9
TGAATCCCCGTA | -0.792
TGAGCCAGTGTA | -0.769
TGATGCAGCGTA | -0.0989

Sequence | binding signal (log2 normalized fluorescence)
TGATATCACGTA | 0.35
TGAGTCCCTGTA | -0.756
TAGCACGTGGTA | 3.44
TGAGGGGCTGTA | 0.788
TGACCCTGCGTA | -0.145
TGAATGAGCGTA | -0.36
TGATTACTTGTA | -0.744
TGACACGTAGTG | 1.44
TGACCCGGCGTA | -0.0807
TGAATGCGGGTA | 0.201
TAACTCGTGGTA | 3.08
TGATACGCGGTC | -0.432
TGATCCATGGTA | 0.313
AGAAATCTTGTT | -0.503
TGAGTCCCAGTA | -1.17
TGACACGTATAA | 0.952
TGAGGCCTAGTA | -1.08
TGAAGCTCAGTA | -0.829
TGATGCTCAGTA | -0.23
TGAAACGATGTA | -0.0528
TGAGAGTCAGTA | -0.569
TGACACGTCCAA | 1.3
TGATCGCCGGTA | -0.623

Sequence | binding signal (log2 normalized fluorescence)
TGACACGCTGTA | 2.96
CGTTACCCTGTG | -0.0502
TGACGTCTAGTA | -0.552
CGACCCGTGGTT | 2.34
TGAAAAGCAGTA | -0.672
TGATCAAGGGTA | -0.724
TGAAATCTAGTA | -1.09
TGAAATCTCGTA | -0.873
TGACACGTACGA | 1.13
TGAAGAGTGGTA | 0.0783
TGATTCGCGGTA | -1.04
TGACCTCCCGTA | -0.203
TGATACTGGGTA | -0.4
TGACTGCACGTA | 0.646
TGAAATCGAGTA | -0.775
TGAAATTGAGTA | -1.08
TGATTAATAGTA | -1.05
TGATAGCACGTA | 0.432
TGACGCAACGTA | 0.133
TGACAACCCGTA | 0.226
TGAGATACAGTA | -0.868
TGACATTTTGTA | -0.64

Reference: article PMC5515408
